Data reported in the supplement of paper PMC12217912.
The other results are listed elsewhere or left out. The full chains were built here from the parent and the listed change. Inactive controls read about 0.05.

B1: TEV protease; numbered along this chain (parent)
chain: MGESLFKGPRDYNPISSSICHLTNESDGHTTSLYGIGFGPFIITNKHLFRRNNGTLVVQSLHGVFKVKDTTTLQQHLVDGRDMIIIRMPKDFPPFPQKLKFREPQREERICLVTTNFQTKSMSSMVSDTSCTFPSGDGIFWKHWIQTKDGQCGSPLVSTRDGFIVGIHSASNFTNTNNYFTSVPKNFMELLTNQEAQQWVSGWRLNADSVLWGGHKVFMVKPEEPFQPVKEATQL

Variants of: B1
Test: raw area under fraction-flipped curve 0-4 h after induction (AUC4h, not background-subtracted), DNA-recorder readout of cleavage of the substrate (dimensionless); higher = more cleavage of the substrate by the protease variant
Conditions: temperature: 34 °C; time window: 0-4 h after rhamnose induction
Protocol: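 In vivo DNA recorder in E. coli TOP10(DE3) ΔrhaA at 34 °C. Each TEVp single-site mutant (parent TEVp 0) is paired with a single-site variant of the 7-mer TEVs (canonical ENLYFQ|S). The substrate sits between flexible linkers in a Bxb1-sfGFP-TEVs-SsrA fusion, so cleavage stabilises Bxb1 and speeds flipping of a recombination array, read by NGS. The value is the raw area under the fraction-flipped curve over 0-4 h after rhamnose induction (AUC4h), with ≥20 reads per time point. It is not background-subtracted; inactive controls average about 0.047.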
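Note: Bxb1 expression induced with 0.2% (w/v) L-rhamnose at OD600 near 0.5, cultures sampled hourly, flipped fraction per protease–substrate barcode pair counted by paired-end Illumina sequencing.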

| Variant | area with substrate ENLYFCS | area with substrate ENLYFDS | area with substrate ENLYFES | area with substrate ENLYFFS | area with substrate ENLYFHS | area with substrate ENLYFIS | area with substrate ENLYFKS | area with substrate ENLYFMS | area with substrate ENLYFNS | area with substrate ENLYFPS | area with substrate ENLYFRS | area with substrate ENLYFSS | area with substrate ENLYFTS | area with substrate ENLYFVS | area with substrate ENLYFWS | area with substrate ENLYFYS | area with substrate ENLYFLS | area with substrate ENLYFGS |
| --- | --- | --- | --- | --- | --- | --- | --- | --- | --- | --- | --- | --- | --- | --- | --- | --- | --- | --- |
| MGESLFKGPRDYNPISSSICHLTNESDGHTTSLYGIGFGPFIITNKHLFRRNNGTLVVQSLHGVFKVKDTTTLQQHLVDGRDMIIIRMPKDFPPFPQKLKFREPQHEERICLVTTNFQTKSMSSMVSDTSCTFPSGDGIFWKHWIQTKDGQCGSPLVSTRDGFIVGIHSASNFTNTNNYFTSVPKNFMELLTNQEAQQWVSGWRLNADSVLWGGHKVFMVKPEEPFQPVKEATQL [R106H] | 0.0587 | 0.052 | 0.0604 | 0.075 | 0.0636 | 0.056 | 0.0677 | 0.0901 | 0.0641 | 0.0651 | 0.0555 | 0.073 | 0.0706 | 0.0565 | 0.0502 | 0.053 |  |  |
| MGESLFKGPRDYNPISSSICHLTNESDGHTTSLYGIGFGPFIITNKHLFRRNNGTLVVQSLHGVFKVKDTTTLQQHLVDGRDMIIIRMPKDFPPFPQKLKFREPQREIRICLVTTNFQTKSMSSMVSDTSCTFPSGDGIFWKHWIQTKDGQCGSPLVSTRDGFIVGIHSASNFTNTNNYFTSVPKNFMELLTNQEAQQWVSGWRLNADSVLWGGHKVFMVKPEEPFQPVKEATQL [E108I] | 0.072 | 0.0539 | 0.0539 | 0.0657 |  | 0.072 | 0.0391 | 0.0782 | 0.062 | 0.0534 |  | 0.0637 | 0.0542 | 0.058 | 0.0418 | 0.018 | 0.0517 |  |
| MGESLFKGPRDYNPISSSICHLTNESDGHTTSLYGIGFGPFIITNKHLFRRNNGTLVVQSLHGVFKVKDTTTLQQHLVDGRDMIIIRMPKDFPPFPQKLKFREPQRESRICLVTTNFQTKSMSSMVSDTSCTFPSGDGIFWKHWIQTKDGQCGSPLVSTRDGFIVGIHSASNFTNTNNYFTSVPKNFMELLTNQEAQQWVSGWRLNADSVLWGGHKVFMVKPEEPFQPVKEATQL [E108S] | 0.0508 |  | 0.0606 | 0.0602 | 0.0481 | 0.0409 | 0.0674 | 0.0539 |  | 0.0441 |  | 0.0641 |  | 0.0551 |  | 0.0405 |  |  |
| MGESLFKGPRDYNPISSSICHLTNESDGHTTSLYGIGFGPFIITNKHLFRRNNGTLVVQSLHGVFKVKDTTTLQQHLVDGRDMIIIRMPKDFPPFPQKLKFREPQREEHICLVTTNFQTKSMSSMVSDTSCTFPSGDGIFWKHWIQTKDGQCGSPLVSTRDGFIVGIHSASNFTNTNNYFTSVPKNFMELLTNQEAQQWVSGWRLNADSVLWGGHKVFMVKPEEPFQPVKEATQL [R109H] | 0.061 |  | 0.0673 | 0.058 | 0.0213 | 0.0606 |  | 0.073 | 0.0695 | 0.0561 | 0.0592 | 0.0784 | 0.0831 |  |  | 0.0594 |  |  |
| MGESLFKGPRDYNPISSSICHLTNESDGHTTSLYGIGFGPFIITNKHLFRRNNGTLVVQSLHGVFKVKDTTTLQQHLVDGRDMIIIRMPKDFPPFPQKLKFREPQREERICLVVTNFQTKSMSSMVSDTSCTFPSGDGIFWKHWIQTKDGQCGSPLVSTRDGFIVGIHSASNFTNTNNYFTSVPKNFMELLTNQEAQQWVSGWRLNADSVLWGGHKVFMVKPEEPFQPVKEATQL [T114V] | 0.0679 |  | 0.0491 | 0.0556 |  | 0.0579 | 0.0652 | 0.0631 | 0.0389 | 0.0512 | 0.0528 |  | 0.0472 | 0.0738 |  |  |  | 0.0676 |
| MGESLFKGPRDYNPISSSICHLTNESDGHTTSLYGIGFGPFIITNKHLFRRNNGTLVVQSLHGVFKVKDTTTLQQHLVDGRDMIIIRMPKDFPPFPQKLKFREPQREERICLVTTNKQTKSMSSMVSDTSCTFPSGDGIFWKHWIQTKDGQCGSPLVSTRDGFIVGIHSASNFTNTNNYFTSVPKNFMELLTNQEAQQWVSGWRLNADSVLWGGHKVFMVKPEEPFQPVKEATQL [F117K] | 0.0599 | 0.0557 |  | 0.0686 | 0.0671 | 0.0534 |  | 0.0762 | 0.0645 | 0.0541 | 0.0633 | 0.0637 | 0.0597 | 0.0608 | 0.0611 | 0.0613 | 0.0593 |  |
| MGESLFKGPRDYNPISSSICHLTNESDGHTTSLYGIGFGPFIITNKHLFRRNNGTLVVQSLHGVFKVKDTTTLQQHLVDGRDMIIIRMPKDFPPFPQKLKFREPQREERICLVTTNFQTQSMSSMVSDTSCTFPSGDGIFWKHWIQTKDGQCGSPLVSTRDGFIVGIHSASNFTNTNNYFTSVPKNFMELLTNQEAQQWVSGWRLNADSVLWGGHKVFMVKPEEPFQPVKEATQL [K120Q] | 0.0615 | 0.0581 | 0.05 | 0.0778 | 0.0702 | 0.0484 | 0.0698 | 0.0734 | 0.0546 | 0.0651 | 0.05 | 0.0509 |  |  | 0.0473 |  |  |  |
| MGESLFKGPRDYNPISSSICHLTNESDGHTTSLYGIGFGPFIITNKHLFRRNNGTLVVQSLHGVFKVKDTTTLQQHLVDGRDMIIIRMPKDFPPFPQKLKFREPQREERICLVTTNFQTKSMSSKVSDTSCTFPSGDGIFWKHWIQTKDGQCGSPLVSTRDGFIVGIHSASNFTNTNNYFTSVPKNFMELLTNQEAQQWVSGWRLNADSVLWGGHKVFMVKPEEPFQPVKEATQL [M125K] | 0.0592 |  | 0.0649 | 0.0836 |  | 0.0623 | 0.0661 | 0.0619 | 0.0665 |  | 0.0481 | 0.0625 |  |  |  | 0.0588 | 0.0671 | 0.0811 |
